The RNAGym collection of RNA variant scans (doi:10.7554/elife.90254)
Read counts are not given, so values of variants with three or more changes are uncertain.

B1: LINE1-mini (parent)
chain: GGCAGAGCUCAACACAGCGUGGCAAAGUGGCUGUGGCUAGACUGCC

Variants of: B1
Assay: self-cleavage, relative activity (ratio to wild type); higher = more cleavage; in vitro, sequencing; the parent is a self-cleaving ribozyme
With C3A C15U C18A C37U the self-cleavage was 0.14.
Work on C3A C18U U20G A25G G30A G33A C45G yielded a self-cleavage of 0.02.
In the case of C3A A4G C18A U28A, the self-cleavage is reported as 0.09.
Work on C3A A12U C18U G19C C23U G29A G35U yielded a self-cleavage of 0.22.
In the case of C3A A6G C10A C13A C45G, the self-cleavage is reported as 0.03.
Work on C3A A16U C42U yielded a self-cleavage of 0.11.
With C3A A4U G33C the self-cleavage was 0.03.
Work on C3A A16G G35A yielded a self-cleavage of 0.21.
Variant C3A A14C G22U G27U C31A has a self-cleavage of 0.04.
Work on C3A C18A G35U C37G yielded a self-cleavage of 0.02.
C3A A11G C13A U28G G35C showed a self-cleavage of 0.02.
For C3A C8U C10G G17A U38C, the self-cleavage was 0.01.
C3A A24G C37A gave a self-cleavage of 0.23.
In the case of C3A C8A A12U G22A G29C, the self-cleavage is reported as 0.54.
C3A C8A G27U showed a self-cleavage of 0.5.
In the case of C3A A6U C37G C45U, the self-cleavage is reported as 0.14.
Variant C3A C8A U9C A11U G27A has a self-cleavage of 0.03.
C3A C18U G19C U28C C45U showed a self-cleavage of 0.07.
Variant C3A C18A C23A G33U G35A A39U has a self-cleavage of 0.07.
In the case of C3A C13U C18G, the self-cleavage is reported as 0.13.
Work on C3A C10A A25G yielded a self-cleavage of 0.04.
With C3A C10A A25U the self-cleavage was 0.03.
Variant C3A C23U U38G has a self-cleavage of 0.01.
In the case of C3A C10A A12C C37A, the self-cleavage is reported as 0.02.
Variant C3A A6C A26U G36U has a self-cleavage of 0.11.
Work on C3A A4C U20G G21U yielded a self-cleavage of 0.19.
For C3A C18U G27C G36U, the self-cleavage was 1.34.
With C3A A16U U20A A25U the self-cleavage was 0.7.
C3A A4C G17U G40C gave a self-cleavage of 0.23.
Work on C3A A14U G17C G22C U38A yielded a self-cleavage of 0.08.
C3A A12G C18A G44A showed a self-cleavage of 0.04.
C3A C18U G35A showed a self-cleavage of 0.26.
Variant C3A C15U G29A A39C has a self-cleavage of 0.09.
For C3A A14G G19U G40C, the self-cleavage was 0.05.
In the case of C3A A26C C31U G40U G44U, the self-cleavage is reported as 0.01.
C3A C8A U38A showed a self-cleavage of 0.7.
C3A A6C U34A A39U showed a self-cleavage of 0.01.
With C3A A11C C23A C42A the self-cleavage was 0.
With C3A C8U G17C C31U C42U G44C the self-cleavage was 0.07.
In the case of C3A C13G G22A G33C, the self-cleavage is reported as 0.08.
Variant C3A A4U A6C G7U U9A G21U has a self-cleavage of 0.22.
In the case of C3A A26G G30U G35A G36U G44A, the self-cleavage is reported as 0.07.
C3A C8G C15G U34A gave a self-cleavage of 0.13.
In the case of C3A A12C G40U, the self-cleavage is reported as 0.13.
Variant C3A C10G G21U C31A G36U has a self-cleavage of 0.02.
With C3A A16U G19U A24U G30U the self-cleavage was 0.04.
C3A A14U U20C G29U showed a self-cleavage of 0.67.
In the case of C3A C8A C46U, the self-cleavage is reported as 0.84.
C3A C18G C23A gave a self-cleavage of 0.67.
Work on C3A C18A G22A A25U A26C U34G G40A yielded a self-cleavage of 0.
With C3A A4U G29C the self-cleavage was 0.08.
C3A A26G G36U gave a self-cleavage of 0.16.
C3A A14G C23A A26C U32A showed a self-cleavage of 0.08.
Work on C3A A26G U38C C42G yielded a self-cleavage of 0.19.
Work on C3A A24C C46U yielded a self-cleavage of 0.13.
Work on C3A A14U C15U G27U yielded a self-cleavage of 0.13.
Variant C3A C15G G17C has a self-cleavage of 0.33.
With C3A A12U C13A C15U G17U U28C the self-cleavage was 0.13.
For C3A A6C A12G G36U C42G, the self-cleavage was 0.03.
Work on C3A C18G G21A yielded a self-cleavage of 0.13.
C3A C8A C15U gave a self-cleavage of 0.66.
With C3A C8A C15A the self-cleavage was 0.6.
C3A A6G C18U U34C A39C G44A gave a self-cleavage of 0.
Variant C3A A11U C15A U38C G44A has a self-cleavage of 0.02.
C3A C8U A16U G22C G40C gave a self-cleavage of 0.15.
C3A A14G G40C showed a self-cleavage of 0.17.
With C3A C8U G17C A39G the self-cleavage was 0.03.
Variant C3A C8A A16C G17C C46A has a self-cleavage of 0.05.
Variant C3A C13A A25G has a self-cleavage of 0.08.
Variant C3A C18A G29A has a self-cleavage of 0.1.
Work on C3A C8G G30U G36A yielded a self-cleavage of 0.61.
C3A A14U C18A G21U C23A showed a self-cleavage of 0.05.
In the case of C3A C10A G21A C31A C46U, the self-cleavage is reported as 0.05.
Variant C3A C10A U20G U28C has a self-cleavage of 0.03.
Variant C3A C10A A24U A25G has a self-cleavage of 0.05.
With C3A C15U G21U G40U the self-cleavage was 0.07.
With C3A C23G U38C C46G the self-cleavage was 0.1.
With C3A C10U G36A the self-cleavage was 0.34.
Work on C3A A41C C45A yielded a self-cleavage of 0.16.
With C3A A12U C45G the self-cleavage was 0.09.
Work on C3A A11C A25G yielded a self-cleavage of 0.03.
C3A C8G U9C G19A gave a self-cleavage of 0.75.
Work on C3A C23U U28C C31A yielded a self-cleavage of 0.14.
With C3A C15G G21A G22A C42A C46U the self-cleavage was 0.07.
C3A C13A U28G showed a self-cleavage of 0.05.
C3A C8U G21U C23U C37G gave a self-cleavage of 0.11.
With C3A A14G A25U the self-cleavage was 0.63.
Variant C3A C8A G35A G36A has a self-cleavage of 1.61.
Variant C3A C15G G35C has a self-cleavage of 0.06.
C3A A16U U34G A39G gave a self-cleavage of 0.06.
Work on C3A C10A G19A G36A yielded a self-cleavage of 0.07.
Work on C3A C8G C10U A12U C15U G17A C18G A25C A41U yielded a self-cleavage of 0.03.
With C3A A14C G22A G29U the self-cleavage was 0.44.
C3A C10A A24U showed a self-cleavage of 0.07.
C3A C8A C13A G21A G40U showed a self-cleavage of 1.89.
C3A C8G G22A G40A showed a self-cleavage of 0.25.
Work on C3A A6U A14G G22A yielded a self-cleavage of 0.12.
For C3A C15A C18U G30C, the self-cleavage was 0.1.
C3A C15U G19C showed a self-cleavage of 0.24.
With C3A A11U C13G G33C U43A G44C the self-cleavage was 0.01.
Work on C3A A6C A11C yielded a self-cleavage of 0.04.
C3A A6U C31U showed a self-cleavage of 0.15.
C3A C13A A16U gave a self-cleavage of 0.04.
Variant C3A C15U G30C C46A has a self-cleavage of 0.24.
Work on C3A A6G C15U G21U G30A C42G C45A yielded a self-cleavage of 0.13.
C3A C18A U20A gave a self-cleavage of 0.11.
C3A C13G G19U gave a self-cleavage of 0.21.
With C3A A6U C8U G17A C23U G35U the self-cleavage was 0.27.
With C3A C18U U32G the self-cleavage was 0.09.
Variant C3A C8U A11G C46A has a self-cleavage of 0.04.
C3A A11C C31A G36A C37G showed a self-cleavage of 0.01.
C3A A39C C42G gave a self-cleavage of 0.08.
C3A C8G U9G showed a self-cleavage of 0.04.
C3A A25U A26G G35C gave a self-cleavage of 0.14.
Variant C3A C15U G21A U32C G36U G40C A41U has a self-cleavage of 0.05.
C3A A6G C13G U34C showed a self-cleavage of 0.09.
In the case of C3A C18A G19A G40U, the self-cleavage is reported as 0.03.
With C3A A12G C46A the self-cleavage was 0.27.
With C3A A11G A24C the self-cleavage was 0.02.
For C3A C15A G21C C42U, the self-cleavage was 0.22.
In the case of C3A C8U C18A, the self-cleavage is reported as 0.11.
For C3A C15U A39C, the self-cleavage was 0.15.
Variant C3A A24C G35A C46U has a self-cleavage of 0.13.
C3A C15G C31U showed a self-cleavage of 0.03.
In the case of C3A C13G G19C C45U, the self-cleavage is reported as 0.43.
For C3A C8U A14C A24G, the self-cleavage was 0.49.
With C3A C23A A24C U38G the self-cleavage was 0.02.
C3A A12C G17A C23U gave a self-cleavage of 0.02.
Variant C3A A16U U20C G36A has a self-cleavage of 0.32.
Work on C3A C8G C15A U43C C46U yielded a self-cleavage of 0.1.
C3A A24C G30C C37U G44U C46G showed a self-cleavage of 0.07.
Variant C3A A6G C10U C42A has a self-cleavage of 0.05.
C3A C13G G22U gave a self-cleavage of 1.09.
For C3A A14G G35U, the self-cleavage was 0.49.
Work on C3A A6G A11G yielded a self-cleavage of 0.06.
Work on C3A C13G G19U G30A C46G yielded a self-cleavage of 0.05.
C3A A16U G33U showed a self-cleavage of 0.29.
C3A C10A G33C gave a self-cleavage of 0.23.
C3A A14C A16G showed a self-cleavage of 0.28.
C3A C18G U28A showed a self-cleavage of 0.19.
Work on C3A C10U A11U A16C G22U yielded a self-cleavage of 0.03.
Variant C3A A6C A26U U43A C45A has a self-cleavage of 0.39.
C3A A6C A16G A25U G33C G36U gave a self-cleavage of 0.02.
Work on C3A A11G C13U A25C yielded a self-cleavage of 0.08.
Work on C3A A4C G35U A39G yielded a self-cleavage of 0.27.
In the case of C3A C8A C15A A41U, the self-cleavage is reported as 0.64.
With C3A A12C G44U the self-cleavage was 0.03.
Work on C3A A4G U32C U38A C42G yielded a self-cleavage of 0.07.
Variant C3A A26U A39G has a self-cleavage of 0.93.
C3A C8G C45U showed a self-cleavage of 0.21.
In the case of C3A C8U C46A, the self-cleavage is reported as 1.1.
C3A A24U A26C G35U C37A gave a self-cleavage of 0.14.
Variant C3A C8U C15G C23G C42A has a self-cleavage of 0.15.
C3A A4G G36U showed a self-cleavage of 0.15.
C3A A14C A24C A41C C46A showed a self-cleavage of 0.06.
With C3A C13U G44A the self-cleavage was 0.12.
For C3A A4C G27A U34C A41C, the self-cleavage was 0.07.
Work on C3A A25G U32C yielded a self-cleavage of 0.1.
Work on C3A C13G U34C C45G C46G yielded a self-cleavage of 0.1.
C3A C8A G21A showed a self-cleavage of 2.39.
Work on C3A A6U C18A yielded a self-cleavage of 0.1.
Work on C3A C8G A12G C15U C18A U38A C42A C46A yielded a self-cleavage of 0.03.
C3A C15A C18A G21C gave a self-cleavage of 0.28.
With C3A C8U C13U G44A the self-cleavage was 1.02.
C3A A6U C8G G22A G44A showed a self-cleavage of 0.
With C3A A16C U34C the self-cleavage was 0.13.
C3A A6G G19U U34A gave a self-cleavage of 0.15.
